Consider 1 molecule from PubChem BioAssay (NCI).

In this assay the test system is NCI-H322M lung. Put plainly: NCI tumour cell line growth inhibition, 48 h.

Each structure is given as a SMILES string.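 These data come from cells grown in 96-well plates and exposed to compound for 48 hours at five concentrations. GI50: concentration for 50% inhibition of growth. TGI denotes the concentration required for complete inhibition of growth.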

For `CC[C@]12C=CCN3CC[C@]4(C(=C(C(=O)OC)C1)Nc1cc5c(cc14)[C@@H]1[C@H](O5)[C@@H](O)[C@@]4(CC)CC(C(=O)OC)=C5Nc6cc(O)ccc6[C@@]56CCN1C46)C32` (some centres not stated), the GI50 was 197 nM and the TGI came to 2790 nM.
